Assay results published in PubChem BioAssay AID1159614 (National Center for Advancing Translational Sciences (NCATS), 2016).
Among all 45,000 compounds or so, about 65 (0.1%) were called active. The call rests on the fitted dose curve; in most records, active means well fitted activation curve with a large enough effect; inconclusive means small, poorly fitted or top-dose-only effect; inactive means no such curve, though single readings can be large or run the other way. The list shows a part of the results.

target: Galactocerebrosidase (Homo sapiens) (UniProt P54803); experiment: A Novel Cell-Based Assay to Identify Small Molecules for B -Galactocerebrosidase; conditions: 145M-Twi-hGALC-G270D cells (Twitcher mouse brain line with human GALC G270D), HMU-beta-Gal fluorescence, 48 h; series mostly up to 57.5 µM; activation: at the top concentration; further: 0% is about no effect; nearly all actives have a fitted effect of over 65% in size
Summary of the method: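 Brain-derived Twitcher mouse 145M-Twi cells stably expressing human GALC-G270D or wild-type GALC, treated live, then residual GALC activity read by fluorescence of HMU-b-Gal substrate (0.1 mM final) in citrate-phosphate buffer pH 5.2 with sodium taurocholate. Signal increase indicates enhancement.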

UniProt P54803, sequence (P54803 whole entry, looked up): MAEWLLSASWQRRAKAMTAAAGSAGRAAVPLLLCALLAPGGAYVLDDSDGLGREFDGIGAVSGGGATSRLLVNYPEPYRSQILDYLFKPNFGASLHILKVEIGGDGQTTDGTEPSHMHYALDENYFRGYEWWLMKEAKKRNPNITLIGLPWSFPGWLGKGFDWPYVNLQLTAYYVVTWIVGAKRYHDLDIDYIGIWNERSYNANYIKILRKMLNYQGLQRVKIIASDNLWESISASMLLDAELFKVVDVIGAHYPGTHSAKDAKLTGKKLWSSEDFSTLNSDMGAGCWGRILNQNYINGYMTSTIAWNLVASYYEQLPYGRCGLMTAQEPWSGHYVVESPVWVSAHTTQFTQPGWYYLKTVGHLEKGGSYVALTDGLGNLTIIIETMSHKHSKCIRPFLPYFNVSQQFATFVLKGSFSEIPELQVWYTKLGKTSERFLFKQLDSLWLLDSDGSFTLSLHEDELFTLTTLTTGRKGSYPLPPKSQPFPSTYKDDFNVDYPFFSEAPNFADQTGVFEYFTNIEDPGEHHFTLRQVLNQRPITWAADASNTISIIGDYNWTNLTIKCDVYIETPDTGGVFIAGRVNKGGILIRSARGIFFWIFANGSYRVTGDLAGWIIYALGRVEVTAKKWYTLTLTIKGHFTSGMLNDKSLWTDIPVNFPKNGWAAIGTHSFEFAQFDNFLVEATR

activation, inactive:
O=C1c2[nH]nc(-c3ccccc3O)c2C(c2ccc(Cl)cc2)N1Cc1ccco1 (configuration not stated) -4.14%
Cc1ccc(C2C=C(c3ccc(Cl)cc3)Nc3nc(NS(=O)(=O)c4ccccc4)nn32)cc1 (configuration not stated) -16%
CCN1CCN(C(=O)c2cnn(-c3ccc(F)cc3)c2-n2cccc2)CC1 -17.1%
O=C(CCC1N=C2c3ccccc3N=C(SCC(=O)Nc3ccccc3F)N2C1=O)NCc1ccccc1 (configuration not stated) -17%
COc1ccccc1NC(=O)Cn1c(=O)n(-c2cccc(C(C)=O)c2)c(=O)c2c3c(sc21)CN(C(C)=O)CC3 -18.9%
CC(=O)Nc1ccc(S(=O)(=O)NCC2CCC(C(=O)NCCc3ccccc3)CC2)cc1 (configuration not stated) -19.8%
Cc1nn(C(=O)c2cccc([N+](=O)[O-])c2C)c(C)c1S(=O)(=O)N1CCOCC1 -7.29%
CC(C)c1ccc(S(=O)(=O)c2nnn3c2nc(NCCc2ccccc2)c2sccc23)cc1 7.45%
CC(CCc1ccccc1)NC(=O)Cn1ncc2c3ccccc3n(Cc3ccc(F)cc3)c2c1=O (configuration not stated) -11.2%
CCCn1c(=O)c2sccc2n2c(CCCC(=O)NCCc3ccc(Cl)cc3)nnc12 -12.2%
Cc1ccc(CNC(=O)c2cc3sccc3n2Cc2ccc(Cl)cc2)cc1 11.4%
COc1cccc(N2CC(NC(=O)C(c3ccccc3)c3ccccc3)CC2=O)c1 (configuration not stated) -17.2%
Cc1cc(C)cc(Oc2nc3c(C)cccn3c(=O)c2/C=C(\C#N)c2nc3ccccc3[nH]2)c1 -12.5%
Cc1ccc(NC(=O)CC(C)S(=O)(=O)c2ccc3c(c2)NC(=O)CO3)c(C)c1 (configuration not stated) -10.3%
COc1cc(-c2ccno2)ccc1S(=O)(=O)N1CCN(c2cc(C)ccc2C)CC1 -21.6%
COCC(=O)Oc1c(Sc2ccc(C)cc2)c(C)nn1C(C)(C)C -24.7%
CCO[C@H](Cc1ccc(OCCc2ccc(OS(C)(=O)=O)cc2)cc1)C(=O)O -11.4%
COc1ccccc1/C=C/c1nc(C#N)c(N2CCCCC2)o1 4.53%
Cc1nc2nncn2c(N2CCN(c3ccccc3)CC2)c1C -10.8%
Cc1ccc2nc(-c3ccsc3)c(Nc3ccccc3C)n2c1 -14.1%
c1cnc2cc3c(cc2n1)C1CNCC3C1 -9.64%
Cn1cc(CN(C(=O)Nc2ccc(Cl)c(Cl)c2)C2CCCCC2)c2ccccc21 -22.5%
Cc1ccccc1Cn1c(C(=O)O)c(CNCc2cccc(F)c2)c2ccccc21 -13.1%
COC(=O)c1scc(-c2ccccc2)c1S(=O)(=O)Nc1ccccc1 -8.06%
COc1ccc(-n2c(/C=C/c3ccccc3F)nc3cc(OC)c(OC)cc3c2=O)cc1Cl -10.7%
COCCNC(=O)c1cnn(-c2ccc(C)cc2C)c1C1CCN(C(=O)OC(C)(C)C)CC1 19.1%
Cc1ccc(N2CC(NC(=O)/C=C\c3ccc4c(c3)OCO4)CC2=O)cc1C (configuration not stated) -22.5%
O=C1c2ccccc2C(=O)C1(c1ccccc1)N1CCN(c2cccc(Cl)c2)CC1 -12.8%
Cc1ccc(NC(=O)CSc2ncc3c(n2)-c2ccccc2N(Cc2cccc(F)c2)S3(=O)=O)cc1F -8.69%
CCN(CC)C(=O)C1CCN(S(=O)(=O)c2ccc3c(c2)CCCN3C(C)=O)CC1 -18.4%
Cc1ccc(-c2cc(C(F)(F)F)n3nc(C(=O)Nc4ccc(Cl)cc4Cl)cc3n2)cc1 -8.5%
O=C(NCc1ccc(F)cc1)c1ccc(CSCc2cccc(Cl)c2)o1 -6.07%
COCCNC(=O)Cc1ccc(NC(=O)N2CCCCc3ccccc32)cc1 -9.15%
CCOc1cc(-c2ccc(OC(=O)c3ccccc3F)cc2)cc(=O)c2c(C)oc(C)c12 -8.04%
O=C(CSc1nccn1Cc1ccccc1)NCc1ccc(F)cc1 -16.1%
CCN(Cc1ccccc1)C(=O)c1c(C)oc2ncn(C)c(=O)c12 5.23%
CCOc1ccc(C(=O)Nc2cc(-c3nc4ccccc4o3)ccc2C)cc1Cl -9.81%
Cc1cc(C)nc(NS(=O)(=O)c2ccc(NC(=O)COc3ccc(Cl)cc3C)cc2)n1 -10.8%
CC1CN(C(=O)Nc2ccc(C(=O)NCCc3ccccc3)cc2)c2ccccc2S1 (configuration not stated) -7.46%
COc1ccc(-n2ccnc(NCc3ccc(Cl)cc3)c2=O)cc1 -13.5%
COc1ccc(NC(=O)CCc2nnc3n(C)c(=O)c4sccc4n23)cc1 -12.7%
Clc1cccc(N2CCN(c3nc4ccccc4n4cnnc34)CC2)c1 -11.6%
COc1ccc(-n2nc3ccc(NC(=O)c4ccc(-c5cc(Cl)ccc5Cl)o4)cc3n2)cc1 -11.2%
O=C(CCCCCCC(=O)Nc1ccccc1)NO -10%
Cc1c(Cl)cccc1-c1ccc(CNc2ccc3[nH]c(=O)[nH]c3c2)o1 -11.8%
Cc1ccc(CCNC(=O)c2cc3sccc3n2Cc2ccc(C)cc2)cc1 -18.4%
CCCc1cnc2c(c1SCC(=O)N(C)c1ccccc1)c(=O)n(C)c(=O)n2C -1.95%
Cc1c(Cl)ccc2sc(NC(=O)c3ccc(S(=O)(=O)N4CCCc5ccccc54)cc3)nc12 8.62%
COc1cccc(NC(=O)C2CCCN(S(=O)(=O)c3c(C)[nH]c(=O)[nH]c3=O)C2)c1 (configuration not stated) 11.9%
Cc1cc(C)cc(NC(=O)CCC(=O)N2Cc3ccccc3Oc3ncccc32)c1 -1.61%
CCN(c1cc(C)cc(C)c1)S(=O)(=O)c1nnc(NC(=O)C2CCCCC2)s1 -6.27%
O=C(Nc1ccc(Br)c2cccnc12)c1cccc2ccccc12 0.71%
CCOc1ccc(NC(=O)Cn2c(=O)n(Cc3ccco3)c(=O)c3oc4ccccc4c32)cc1 -18.4%
COc1ccc(NC(=O)c2oc3ccccc3c2NC(=O)c2cccc(F)c2)c(OC)c1 -4.83%
COc1cc2ccccc2cc1C(=O)Nc1ccc2oc(-c3ccc(F)cc3)nc2c1 -6.77%
CCc1ccccc1NC(=O)c1nnn(-c2ccc(F)cc2)c1C -3.51%
Cc1cc(C)cc(-n2c(SCC(=O)N3CCCCC3)nc3c([nH]c4ccccc43)c2=O)c1 -8.18%
CC1CCN(S(=O)(=O)c2ccc3c(c2)oc(=O)n3CC(=O)NCc2ccc(F)cc2)CC1 -21.4%
CCOC(=O)c1ccccc1NC(=O)CSc1cn(CC(=O)N2CCCCC2)c2ccccc12 -6.79%
Cc1ccc(Oc2c(C(F)(F)F)oc3c(CN4CCCCC4)c(O)ccc3c2=O)cc1 -11.8%
CCOc1cccc2cc(-c3nc(-c4ccccc4C)no3)c(=O)oc12 -7.93%
Cc1cc(F)ccc1NC(=O)CCS(=O)(=O)c1ccc2c(c1)NC(=O)CO2 -9.92%
